Results: PubChem BioAssay AID463173 (ICCB-Longwood Screening Facility, Harvard Medical School, 2010)
Among all 52,000 compounds or so, about 1,700 (3.3%) were called active. Cut-off read from the data, not from the text of the source: active = survival mostly below about 52% (no sharp cut-off); inactive = mostly above about 56%. This is one part of the list.

The compounds below were run on Wild type (assay: S. aureus survival, RN4220 and DeltatarO strains – OD600, teichoic acid synthesis inhibitors, primary screen (AID 463173)). Details: S. aureus RN4220 wild type/DeltatarO growth, OD600, 18 h, hits give low values, screened at 18.75 µg/mL (by protocol).

Structure (SMILES)	survival
O=C(CSc1ccc2ccccc2n1)Nc1nsc(-c2ccc(Cl)cc2)n1	inactive: 68%
CC(=O)Nc1ccc(-c2nn[nH]n2)cc1	inactive: 106%
COc1ccc(Cn2c(SCc3ccc(C(=O)NCc4ccccc4F)cc3)nc3cccnc32)cc1	inactive: 67%
Cc1cccc(-n2c(=O)c3c(c4cc(C)ccc4n3C)n(Cc3ccccc3F)c2=O)c1	inactive: 153%
COc1ccc(CNC(=O)c2cccc(NC(=O)N3CCSc4ncccc43)c2)cc1	inactive: 67%
Cc1ccc(Cl)cc1N1C(=O)N(Cc2ccc(C#N)cc2)c2ccccc2S1(=O)=O	inactive: 55%
COc1ccc(C2=Nc3ccc(C)cc3NC(c3ccc(Cl)cc3)=N2)cc1	inactive: 72%
COc1ccc(Cl)cc1NC(=O)CCCn1c(C)c2cnn(-c3ccccc3)c(=O)c2c1C	inactive: 78%
COc1ccc(-c2noc(N3CCC(C(=O)Nc4ccc(C)c(F)c4)CC3)n2)cc1OC	inactive: 82%
COc1cccc(Cn2c(=O)n(-c3ccc(Br)cc3F)c(=O)c3sc4ccccc4c32)c1	inactive: 76%
COc1ccc(NC(=O)CCNS(=O)(=O)c2cccc3nsnc23)cc1OC	inactive: 80%
COc1ccc(N(Cc2ccccc2)C(=O)c2nc(SC)ncc2Cl)cc1	inactive: 113%
CCOc1cccc2cc(-c3nc4sc5c(c4c(=O)[nH]3)CCC(C)C5)c(=O)oc12 (stereo not drawn)	inactive: 119%
CCCCNC(=O)CSc1nc2ccccc2nc1Cc1ccc(Cl)cc1	inactive: 146%
Cc1ccc(NC(=O)CC2Nc3cccc4cccc(c34)NC2=O)cc1 (stereo not drawn)	inactive: 95%
CCCOc1cccc(C(=O)N(Cc2cc(OC)c(OC)c(OC)c2)C2CCS(=O)(=O)C2)c1 (stereo not drawn)	inactive: 83%
Cc1ccc2nc(N(CCCN(C)C)C(=O)c3ccc(Br)s3)sc2c1	inactive: 90%
O=C(c1cnn2c(C(F)F)cc(-c3ccccc3)nc12)N1CCc2ccccc21	inactive: 95%
Cc1ccc(OCCn2nnc3sc4c(c3c2=O)CCC(C(C)(C)C)C4)cc1 (stereo not drawn)	inactive: 93%
CC(C)c1ccc(NC(=O)c2cccn2-c2nnc(N3CCCCC3)s2)cc1	inactive: 88%
CCn1c(CN2CCC(C)CC2)nc2cc(NC(=O)COc3ccc([N+](=O)[O-])cc3)ccc21	inactive: 86%
Cc1cccc(-n2ncc(C(=O)N3CCC(C)CC3)c2C2CCN(C(=O)OC(C)(C)C)CC2)c1	inactive: 82%

Structure (SMILES)	survival
CCOC(=O)c1cccc(NC(=O)CCCn2c(C)c3cnn(-c4ccccc4)c(=O)c3c2C)c1	inactive: 77%
Cc1ccc(NC(=O)c2cc3c(=O)[nH]c4ccccc4c3n2C)cc1F	inactive: 82%
CCCCn1c(CNC(=O)c2ccc(OC)cc2)nnc1SCC(=O)Nc1ccccc1	inactive: 81%
Cc1ccc(CNC(=O)CCC(=O)N2CC(C)Sc3ccccc32)cc1 (stereo not drawn)	inactive: 77%
COc1ccc(CCNC(=O)NCc2noc3ccc(C)cc23)c(OC)c1	inactive: 93%
CCN(CC)c1cc2c(cc1F)c(=O)c(S(=O)(=O)c1ccccc1)cn2Cc1ccccc1	inactive: 73%
CC(=O)c1cccc(NS(=O)(=O)c2c(C)nc3sc(C)cn3c2=O)c1	inactive: 92%
CCOC(=O)c1c(S(=O)(=O)NCC(=O)N2CCN(c3ccccc3OC)CC2)c(C)n(C)c1C	inactive: 85%
Cc1cc(C)c(/C=C/c2onc(C)c2S(=O)(=O)N2CCC(C(=O)N3CCN(c4ccccc4)CC3)CC2)c(C)c1	inactive: 69%
COC(=O)c1ccc(Cn2c(SCc3cccc(C)c3)nc3ccncc32)cc1	inactive: 105%
CCOC(=O)c1sc2ncn(CC(=O)Nc3ccc(C)cc3C)c(=O)c2c1C	inactive: 92%
COc1ccc(S(=O)(=O)N(CC(=O)N2CCC(C)CC2)c2ccc(C)cc2)cc1	inactive: 89%
COc1ccccc1-c1nn(CCC(=O)Nc2cccc(C(C)=O)c2)c2nc(C)cc(C)c12	inactive: 99%
Cc1ccc(-c2ccc(=O)n(C(C)C(=O)Nc3ccccc3Cl)n2)cc1C (stereo not drawn)	inactive: 76%
COc1cccc(NC(=O)c2cn(C3CCCCC3)c(=O)c3c2c2ccccc2n3C)c1	inactive: 71%
CCCCNC(=O)C(CC)Sc1nnc(-c2ccc(OC)c(OC)c2)c(-c2ccc(OC)c(OC)c2)n1 (stereo not drawn)	inactive: 78%
CC1CCc2nc3ncn(CC(=O)Nc4cccc(C#N)c4)c(=O)c3cc2C1 (stereo not drawn)	inactive: 87%
Cc1cc(N2CCC(C)CC2)nc2ccc(NC(=O)CCC(=O)N3CCN(c4cccc(C(F)(F)F)c4)CC3)cc12	inactive: 64%
CCc1ccccc1Nc1nn2c(=O)c3ccc(C(=O)Nc4cc(C)cc(C)c4)cc3nc2s1	inactive: 68%
O=S(=O)(Nc1ccc(-c2ccc(N3CCCC3)nn2)cc1)c1ccc(Br)cc1	inactive: 87%
COc1ccc(C(=O)NCC(c2cccs2)S(=O)(=O)c2ccc(C)cc2)cc1 (stereo not drawn)	inactive: 143%
CCOC(=O)c1cnc(-c2ccccc2)nc1Nc1ccc(C)cc1	inactive: 111%

Structure (SMILES)	survival
Cc1cc(F)ccc1NC(=O)c1sc2nc(-c3cccs3)ccc2c1N	inactive: 78%
Cc1nn(C)c2c1c(C(F)(F)F)cc(=O)n2CC(=O)NCc1ccccc1Cl	inactive: 74%
Cc1ccc(NS(=O)(=O)c2ccc3c(c2)NC(=O)CCS3)c(Br)c1	active: -3%
O=C(NCc1ccccc1Cl)C1CCCN1C(=O)NCc1ccccc1 (stereo not drawn)	inactive: 106%
Cc1ccc(CC(=O)Nc2c(C(=O)N3CCN(c4ccccc4F)CC3)oc3ccccc23)cc1	inactive: 79%
CCc1cccc(CC)c1NC1=NS(=O)(=O)c2ccccc21	inactive: 66%
CC(C)OCCCN1C(=O)c2[nH]nc(-c3ccccc3O)c2C1c1ccc(OCc2ccccc2)cc1 (stereo not drawn)	inactive: 44%
CCOc1ccccc1NC(=O)C(C)Sc1nc2c(c(=O)[nH]1)CCCC2 (stereo not drawn)	inactive: 79%
COc1ccc(-c2cc(C(=O)Nc3c(C)nn(Cc4ccc(F)cc4)c3C)no2)cc1OC	inactive: 79%
CCOCCCNC(=O)CCc1nnc2ccc(N3CCN(c4cccc(OC)c4)CC3)nn12	inactive: 97%
CCOC(=O)c1ccccc1NC(=O)CCc1c(C)nc2ncnn2c1C	inactive: 85%
Cc1ccc(NCc2nnc3n2CCCCC3)cc1Cl	inactive: 124%
Cc1oc(-c2ccccc2)nc1CNC(=O)Nc1ccccc1	inactive: 64%
CCOC(=O)C1=C(CN2CCC(C(=O)OCC)CC2)NC(=O)NC1c1ccc(Cl)cc1 (stereo not drawn)	inactive: 117%
O=C(N/N=C/c1cccc2c1OCCO2)c1ccc(CN2CCOCC2)cc1	inactive: 110%
Cc1ccc2c(=O)cc(C(=O)Nc3nnc(C)s3)oc2c1	inactive: 76%
CN1C(C(=O)Nc2ccc(F)cc2F)=CC(c2cccs2)=NS1(=O)=O	inactive: 106%
CCn1nc(-c2ccccc2)c(-c2ccccc2)c(C(=O)OCCOC)c1=O	inactive: 93%
CC(C(=O)NCc1ccco1)N1CCN(C)CC1 (stereo not drawn)	inactive: 106%
CC(C)N(C(=O)Cn1cc(S(=O)(=O)Cc2ccc(C(F)(F)F)cc2)c2ccccc21)C(C)C	inactive: 75%
COc1ccc2[nH]c(=O)c(CN(C(=O)Nc3ccccc3)C3CCCC3)cc2c1	inactive: 103%
Cc1ccc(Nc2c(-c3ccccc3O)nc3ccc(Br)cn23)cc1	inactive: 101%

Structure (SMILES)	survival
CC1CCCC(C)N1C(=O)CSc1ccc(-c2ccc3c(c2)OCCO3)nn1 (stereo not drawn)	inactive: 100%
CCOc1ccc(S(=O)(=O)N2CCN(c3ccccc3)CC2)cc1C(N)=O	inactive: 186%
Cc1ccc(CN(C(=O)COc2ccc(C)c(C)c2)C2CCS(=O)(=O)C2)o1 (stereo not drawn)	inactive: 86%
COc1ccc2c(Sc3ccc(Cl)cc3)c(C(=O)NCCCN3CCCCC3)[nH]c2c1	active: -1%
CCOc1ccc(-n2c(=O)c3c(C)c(C(=O)N(C)C)sc3n(CC(=O)Nc3c(C)cc(C)cc3C)c2=O)cc1	inactive: 68%
Cc1cccc(NC(=O)CSc2nc3c([nH]c4ccccc43)c(=O)n2C)c1	inactive: 67%
COc1ccc(OCc2nnc(-c3ccccc3)o2)cc1	inactive: 106%
CC(=O)Nc1ccc(C(=O)CSc2ncn(-c3ccccc3)n2)cc1	inactive: 112%
COc1ccc(S(=O)(=O)Nc2cc(-c3cn4ccccc4n3)ccc2C)cc1	inactive: 117%
Cn1nnc2c(N3CCN(c4ccccc4)CC3)ncnc21	inactive: 88%
COCCn1c(SCC(=O)c2ccc(C)cc2C)nc2cc(C(=O)NC3CCCC3)ccc2c1=O	inactive: 131%
Cc1cc2ccccc2n1CCNC(=O)c1cc(C(F)(F)F)cc(C(F)(F)F)c1	inactive: 139%
CC(C)COc1ccc(C2=NC(c3ccncc3)=Nc3ccc(F)cc3N2)cc1	inactive: 112%
O=C(Nc1cccc(OC(=O)c2ccco2)c1)c1ccccc1	inactive: 107%
CCOc1ccc(N(CC)S(=O)(=O)N2CCCC(C(=O)Nc3cc(Cl)ccc3C)C2)cc1 (stereo not drawn)	inactive: 79%
CN1CCN(C(=O)Cn2c(-c3cccs3)cc3cc(Cl)ccc32)CC1	inactive: 125%
Cc1ccc(Cl)cc1N1CCN(C(=O)C2CCN(S(=O)(=O)c3cccc4nonc34)CC2)CC1	inactive: 115%
Cc1ccccc1OC(=O)CSc1nnc(-c2ccc3c(c2)OCO3)o1	inactive: 116%
COC(=O)c1cc(NC(=O)c2nn(C)c3c2CSc2ccccc2-3)cc(C(=O)OC)c1	inactive: 88%
CC(C)c1ccc(NC(=O)c2cc(S(=O)(=O)N3CCCCC3)cn2C)cc1	inactive: 101%
COc1ccccc1CNc1nc2ccc(Cl)cc2n2cnnc12	inactive: 123%
O=C(c1noc2c1CCCCC2)N1CCN(c2cccc(C(F)(F)F)c2)CC1	active: -3%
